From PubChem BioAssay AID504832 (National Center for Advancing Translational Sciences (NCATS), 2011)
About 18,000 (5.8%) of roughly 310,000 compounds were called active. Inconclusive results, whose numbers are uncertain, are shown with a selection of clear calls. Calls come from the whole dose curve; as a rule, active = well fitted inhibition curve with a large enough effect; inconclusive = small, poorly fitted or top-dose-only effect, or another doubt; inactive = no such curve, though single readings can be large or run the other way. Potencies of inconclusive entries are left out as doubtful fits.

Experiment: Primary qHTS for delayed death inhibitors of the malarial parasite plastid, 48 hour incubation
Settings: P. falciparum luciferase growth in erythrocytes; series mostly up to 28.7 µM
In short: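 Erythrocytes infected with P. falciparum carrying an integrated firefly luciferase reporter (2% hematocrit, 0.1% parasitemia final) were exposed to compounds in RPMI 1640 with 0.5% Albumax at 37 C, 5% CO2. Growth inhibition was scored as reduced luminescence.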
Potency is the fitted concentration of half-maximal effect; tags give direction and shape of the fitted curve.

SMILES	Potency
COc1cccc(NC(=O)C2CC(=O)N(C)C(=Nc3cccc(F)c3)S2)c1 (stereo not drawn)	inconclusive [inhibitor, single point]
COc1cccc(C(N)=O)c1OC(=O)Cc1ccccc1F	inactive
c1ccc(-c2c[n+]3c(n2-c2ccccc2)CCC3)cc1	active: 0.828 µM
Cc1ccc(OCC(=O)N/N=C2/SCC(=O)N2Cc2ccco2)cc1	inconclusive [inhibitor, single point]
N#Cc1ccc(COC(=O)CN2C(=O)NC3(CCCC3)C2=O)cc1	inconclusive [inhibitor, partial curve, poor fit]
CC1(C)OC(=O)C(=CNCC(O)c2ccccc2)C(=O)O1 (stereo not drawn)	inconclusive [inhibitor, single point]
COc1ccccc1/C=C\C(=O)NCC(=O)N/N=C/c1cccc(OC)c1O	inactive
CCc1cc2cc(C(=O)Nc3ccc(C)cc3)sc2s1	inconclusive [inhibitor, full curve]
Cc1ccc(C)c(N2CCN(C(=O)c3ccc(CS(=O)(=O)c4ccccc4C)o3)CC2)c1	inconclusive [inhibitor, single point]
CCOC(=O)c1sc(C)c(C(N)=O)c1NC1=NCCCCC1	inconclusive [inhibitor, single point]
OC(COCCC12CC3CC(CC(C3)C1)C2)CN1CCCC1 (stereo not drawn)	inconclusive [inhibitor, single point]
CCC1CCc2sc(C(=O)OCC(=O)N(CCOC)c3c(N)n(Cc4ccccc4)c(=O)[nH]c3=O)cc2C1 (stereo not drawn)	inconclusive [inhibitor, partial curve]
Cc1cccc(Nc2nnc(SCC(=O)c3c(N)n(C4CC4)c(=O)[nH]c3=O)s2)c1	inactive
C=C(C)COc1ccc(-c2n[nH]c(C)c2Oc2ccccc2OC)c(O)c1	active: 5.22 µM
CCOC(=O)N1CCN(C(=O)COc2ccc3oc4c(c3c2)CCCC4)CC1	inconclusive [inhibitor, partial curve, poor fit]
CSCCC(NS(=O)(=O)c1ccc(C)cc1)C(=O)N1CCN(S(=O)(=O)c2ccc(F)cc2)CC1 (stereo not drawn)	inconclusive [inhibitor, single point]
O=[N+]([O-])c1cccc(-c2cc(-c3cc(Br)ccc3O)[nH]n2)c1	active: 4.65 µM
COC(=O)C1=C(C)OC(N)=C(C#N)C1c1ccc(OC)c(CSc2ccccn2)c1 (stereo not drawn)	inconclusive [inhibitor, single point]
Cc1cc(Nc2ccccc2)n(-c2nc3ccccc3[nH]2)n1	inconclusive [inhibitor, single point]
C[C@@H](NC(=O)c1nc[nH]c1C(=O)N1CCc2ccccc2C1)c1ccccc1	inconclusive [inhibitor, single point]
COc1ccc(CN2CCNC(=O)C2CC(=O)NCc2cn3ccc(C)cc3n2)c(OC)c1 (stereo not drawn)	inactive
N#CC1=C(N)NC(SCC(=O)Nc2ccccc2)=C(C#N)C12CCCCC2	inconclusive [inhibitor, partial curve, poor fit]

SMILES	Potency
Cc1cccc(C)c1NC(=O)Nc1ccc(S(N)(=O)=O)cc1	inconclusive [inhibitor, single point]
C=C(c1ccc(C(=O)O)cc1)c1cc2c(cc1C)C(C)(C)CCC2(C)C	inconclusive [inhibitor, partial curve]
Cc1ccc(C(=O)Nc2c(N)nc(SCC(=O)Nc3cc(C)on3)[nH]c2=O)cc1	inconclusive [inhibitor, single point]
COc1cc(C2CC(=O)Oc3c(C(CCN4CCCC(C)C4)c4ccc(N(C)C)cc4)c(OC)cc(OC)c32)cc(OC)c1OC (stereo not drawn)	active: 13.1 µM
CN1CCN(S(=O)(=O)c2ccc(NN)nc2)CC1	inconclusive [inhibitor, single point]
CN(C)c1ccc(C(CNS(=O)(=O)c2ccc(F)c(F)c2)c2c[nH]c3ccccc23)cc1 (stereo not drawn)	inactive
Cc1ccc(-n2ncc(C(=O)Nc3ccc(Cl)cc3)c2C2CCNCC2)cc1C	inconclusive [inhibitor, partial curve]
Cc1ccc2c(c1)N(CCC(=O)NCCN1CCOCC1)C(=O)CO2	inconclusive [inhibitor, partial curve, poor fit]
COc1ccc(N(CC(=O)Nc2ccc(C(N)=O)cc2)S(=O)(=O)c2ccc(C)c([N+](=O)[O-])c2)cc1	inactive
COc1ccc(C2C(C(=O)OC3CCCCC3)=C(C)Nc3nnnn32)c(OC)c1OC (stereo not drawn)	active: 9.28 µM
CC1(C)Cc2cccc(OCC(=O)Nc3ccccc3N3CCOCC3)c2O1	inconclusive [inhibitor, single point]
Cc1onc(-c2ccccc2)c1C(=O)OCC(=O)Nc1cc(S(=O)(=O)N2CCOCC2)ccc1Cl	inactive
Nc1[nH]c2cc([N+](=O)[O-])ccc2c1-c1ccccn1	inconclusive [inhibitor, single point]
O=C1C2C3c4ccccc4C(c4ccccc43)C2C(=O)N1c1cccc2cccnc12 (stereo not drawn)	inconclusive [inhibitor, full curve]
COc1ccc2c(CC(=O)Nc3nc(C)cs3)coc2c1	inactive
C[C@H](OC(=O)N1CCN(C(c2ccccc2)c2ccccc2)CC1)[C@@H]1O[C@@]2(C)CCC[C@H]1O2	active: 6.57 µM
N/C(=N\NS(=O)(=O)c1ccccc1C(F)(F)F)c1ccccn1	inconclusive [inhibitor, single point]
CCOc1cc(NC(=S)NCC2CCCO2)c(OCC)cc1NC(=O)c1ccccc1 (stereo not drawn)	inconclusive [inhibitor, single point]
O=C1CC(c2ccco2)Cc2nc(Nc3ccc(F)cc3)ncc21 (stereo not drawn)	inactive
Cc1ccc(NC(=O)CN(Cc2ccccc2)S(C)(=O)=O)cc1C	inactive
CCN1CCN(c2ncnc3scc(-c4ccc(C)c(C)c4)c23)CC1	inconclusive [inhibitor, single point]
